These results are taken from patent publication US20240199745A1, “ANTI-EGFR ANTIBODY DRUG CONJUGATES” (priority 2016, published 2024).

To fix the notation:
B1: AbG-CZ (conjugate)
heavy: EVQLQESGPGLVKPSQTLSLTCTVSGYSISNDFAWNWIRQLPGKGLEWMGYISYKGNTRYQPSLKSRITISRDTSKNQFFLKLNSVTAADTATYYCVTASRGLPYWGQGTLVTVSS[human IgG1 constant region left out here]
light: DIQMTQSPSSMSVSVGDRVTITCHSSQDITYNIGWLQQKPGKSFKGLIYHGANLDDGVPSRFSGSGSGTDYTLTISSLQPEDFATYYCVQYDEFPWTFGGGTKLEIKRTVAAPSVFIFPPSDEQLKSGTASVVCLLNNFYPREAKVQWKVDNALQSGNSQESVTEQDSKDSTYSLSSTLTLSKADYEKHKVYACEVTHQGLSSPVTKSFNRGEC
B2: AbG-TV (conjugate)
heavy: EVQLQESGPGLVKPSQTLSLTCTVSGYSISNDFAWNWIRQLPGKGLEWMGYISYKGNTRYQPSLKSRITISRDTSKNQFFLKLNSVTAADTATYYCVTASRGLPYWGQGTLVTVSS[human IgG1 constant region left out here]
light: DIQMTQSPSSMSVSVGDRVTITCHSSQDITYNIGWLQQKPGKSFKGLIYHGANLDDGVPSRFSGSGSGTDYTLTISSLQPEDFATYYCVQYDEFPWTFGGGTKLEIKRTVAAPSVFIFPPSDEQLKSGTASVVCLLNNFYPREAKVQWKVDNALQSGNSQESVTEQDSKDSTYSLSSTLTLSKADYEKHKVYACEVTHQGLSSPVTKSFNRGEC
B3: AbG-SE (conjugate)
heavy: EVQLQESGPGLVKPSQTLSLTCTVSGYSISNDFAWNWIRQLPGKGLEWMGYISYKGNTRYQPSLKSRITISRDTSKNQFFLKLNSVTAADTATYYCVTASRGLPYWGQGTLVTVSS[human IgG1 constant region left out here]
light: DIQMTQSPSSMSVSVGDRVTITCHSSQDITYNIGWLQQKPGKSFKGLIYHGANLDDGVPSRFSGSGSGTDYTLTISSLQPEDFATYYCVQYDEFPWTFGGGTKLEIKRTVAAPSVFIFPPSDEQLKSGTASVVCLLNNFYPREAKVQWKVDNALQSGNSQESVTEQDSKDSTYSLSSTLTLSKADYEKHKVYACEVTHQGLSSPVTKSFNRGEC
B4: AbG-YG (conjugate)
heavy: EVQLQESGPGLVKPSQTLSLTCTVSGYSISNDFAWNWIRQLPGKGLEWMGYISYKGNTRYQPSLKSRITISRDTSKNQFFLKLNSVTAADTATYYCVTASRGLPYWGQGTLVTVSS[human IgG1 constant region left out here]
light: DIQMTQSPSSMSVSVGDRVTITCHSSQDITYNIGWLQQKPGKSFKGLIYHGANLDDGVPSRFSGSGSGTDYTLTISSLQPEDFATYYCVQYDEFPWTFGGGTKLEIKRTVAAPSVFIFPPSDEQLKSGTASVVCLLNNFYPREAKVQWKVDNALQSGNSQESVTEQDSKDSTYSLSSTLTLSKADYEKHKVYACEVTHQGLSSPVTKSFNRGEC
B5: AbG-YY (conjugate)
heavy: EVQLQESGPGLVKPSQTLSLTCTVSGYSISNDFAWNWIRQLPGKGLEWMGYISYKGNTRYQPSLKSRITISRDTSKNQFFLKLNSVTAADTATYYCVTASRGLPYWGQGTLVTVSS[human IgG1 constant region left out here]
light: DIQMTQSPSSMSVSVGDRVTITCHSSQDITYNIGWLQQKPGKSFKGLIYHGANLDDGVPSRFSGSGSGTDYTLTISSLQPEDFATYYCVQYDEFPWTFGGGTKLEIKRTVAAPSVFIFPPSDEQLKSGTASVVCLLNNFYPREAKVQWKVDNALQSGNSQESVTEQDSKDSTYSLSSTLTLSKADYEKHKVYACEVTHQGLSSPVTKSFNRGEC
B6: AbG-SR (conjugate)
heavy: EVQLQESGPGLVKPSQTLSLTCTVSGYSISNDFAWNWIRQLPGKGLEWMGYISYKGNTRYQPSLKSRITISRDTSKNQFFLKLNSVTAADTATYYCVTASRGLPYWGQGTLVTVSS[human IgG1 constant region left out here]
light: DIQMTQSPSSMSVSVGDRVTITCHSSQDITYNIGWLQQKPGKSFKGLIYHGANLDDGVPSRFSGSGSGTDYTLTISSLQPEDFATYYCVQYDEFPWTFGGGTKLEIKRTVAAPSVFIFPPSDEQLKSGTASVVCLLNNFYPREAKVQWKVDNALQSGNSQESVTEQDSKDSTYSLSSTLTLSKADYEKHKVYACEVTHQGLSSPVTKSFNRGEC
B7: AbG-AAD (conjugate)
heavy: EVQLQESGPGLVKPSQTLSLTCTVSGYSISNDFAWNWIRQLPGKGLEWMGYISYKGNTRYQPSLKSRITISRDTSKNQFFLKLNSVTAADTATYYCVTASRGLPYWGQGTLVTVSS[human IgG1 constant region left out here]
light: DIQMTQSPSSMSVSVGDRVTITCHSSQDITYNIGWLQQKPGKSFKGLIYHGANLDDGVPSRFSGSGSGTDYTLTISSLQPEDFATYYCVQYDEFPWTFGGGTKLEIKRTVAAPSVFIFPPSDEQLKSGTASVVCLLNNFYPREAKVQWKVDNALQSGNSQESVTEQDSKDSTYSLSSTLTLSKADYEKHKVYACEVTHQGLSSPVTKSFNRGEC
modifications: non-natural residues
B8: AbG-ZT (conjugate)
heavy: EVQLQESGPGLVKPSQTLSLTCTVSGYSISNDFAWNWIRQLPGKGLEWMGYISYKGNTRYQPSLKSRITISRDTSKNQFFLKLNSVTAADTATYYCVTASRGLPYWGQGTLVTVSS[human IgG1 constant region left out here]
light: DIQMTQSPSSMSVSVGDRVTITCHSSQDITYNIGWLQQKPGKSFKGLIYHGANLDDGVPSRFSGSGSGTDYTLTISSLQPEDFATYYCVQYDEFPWTFGGGTKLEIKRTVAAPSVFIFPPSDEQLKSGTASVVCLLNNFYPREAKVQWKVDNALQSGNSQESVTEQDSKDSTYSLSSTLTLSKADYEKHKVYACEVTHQGLSSPVTKSFNRGEC
B9: AbG-KZ (conjugate)
heavy: EVQLQESGPGLVKPSQTLSLTCTVSGYSISNDFAWNWIRQLPGKGLEWMGYISYKGNTRYQPSLKSRITISRDTSKNQFFLKLNSVTAADTATYYCVTASRGLPYWGQGTLVTVSS[human IgG1 constant region left out here]
light: DIQMTQSPSSMSVSVGDRVTITCHSSQDITYNIGWLQQKPGKSFKGLIYHGANLDDGVPSRFSGSGSGTDYTLTISSLQPEDFATYYCVQYDEFPWTFGGGTKLEIKRTVAAPSVFIFPPSDEQLKSGTASVVCLLNNFYPREAKVQWKVDNALQSGNSQESVTEQDSKDSTYSLSSTLTLSKADYEKHKVYACEVTHQGLSSPVTKSFNRGEC
B10: AbG-ZZ (conjugate)
heavy: EVQLQESGPGLVKPSQTLSLTCTVSGYSISNDFAWNWIRQLPGKGLEWMGYISYKGNTRYQPSLKSRITISRDTSKNQFFLKLNSVTAADTATYYCVTASRGLPYWGQGTLVTVSS[human IgG1 constant region left out here]
light: DIQMTQSPSSMSVSVGDRVTITCHSSQDITYNIGWLQQKPGKSFKGLIYHGANLDDGVPSRFSGSGSGTDYTLTISSLQPEDFATYYCVQYDEFPWTFGGGTKLEIKRTVAAPSVFIFPPSDEQLKSGTASVVCLLNNFYPREAKVQWKVDNALQSGNSQESVTEQDSKDSTYSLSSTLTLSKADYEKHKVYACEVTHQGLSSPVTKSFNRGEC

Test system in the first series: not listed separately
Description: Size exclusion chromatography (SEC), % aggregate fraction of ADCs. The note with it: Shodex KW802.5, absorbance at 280 nm. Format: physicochemical. Here is the method:
Size exclusion chromatography (SEC) was performed using a Shodex KW802.5 column in 0.2M potassium phosphate pH 6.2 with 0.25 mM potassium chloride and 15% isopropyl alcohol at a flow rate of 0.75 ml/min. The peak area absorbance at 280 nm was determined for each of the high molecular weight and monomeric eluents by integration of the area under the curve. The % aggregate fraction of the conjugate sample was determined by dividing the peak area absorbance at 280 nm for the high molecular weight eluent by the sum of the peak area absorbances at 280 nM of the high molecular weight and monomeric eluents multiplied by 100%.
The average DAR values were determined using the above LC-MS method. The % aggregate fraction for the ADCs was also determined using the SEC method described in Example 2.2. The DAR and % aggregation are both reported below in Table 7.
For the molecule B1, the “% Agg (by SEC)” value was 4%.

Consider B2, for which the “% Agg (by SEC)” value came out at 1.4%.

For the molecule B3, the “% Agg (by SEC)” value was determined as 2.1%.

As for B4, the “% Agg (by SEC)” value was 2.4%.

Take B5: the “% Agg (by SEC)” value was found to be 16.5%.

On to B6, for which the “% Agg (by SEC)” value came out at 36.7%.

For B7, the “% Agg (by SEC)” value was 2.5%.

In the case of B8, the “% Agg (by SEC)” value worked out at 12.4%.

B9: the “% Agg (by SEC)” value turned out to be 11.6%.

Regarding B10, the “% Agg (by SEC)” value is on record as 16.8%.

The next series concerns mcl-1−/− MEF Vector Control. Description: CellTiter-Glo cell viability, Mcl-1-/- MEF empty vector control, 96 hours. Format: cell-based, mouse.
Details: not given
The method, then: Retroviral supernatants were produced through transfection of the GP2-293 packaging cell line (Clontech) with the retroviral construct pLVC-IRES-Hygro (Clontech) containing huEGFR sequence or the empty vector utilizing FuGENE 6 transfection reagent (Roche Molecular Biochemicals, Mannheim, Germany). After 48 hours of culture, virus-containing supernatant was harvested and applied to mcl-1^−/− MEFs in 75 cm^2 culture flasks (0.5×10^6 per flask) for a further 48 hours in the presence of polybrene (8 μg/ml; Sigma). Mcl-1^−/− MEFs were washed and selected after 3 days with 250 μg/mL hygromycin B (Invitrogen) in the full complement of media. The expression of huEGFR was confirmed by flow cytometry and compared to the parental cell line or those transfected with the empty vector.
Mcl-1^−/− MEFs expressing huEGFR or the pLVX empty vector (Vct Ctrl) were treated with AB033-targeted Bcl-xL-ADCs, AB033 alone or MSL109-targeted Bcl-xL-ADCs for 96 hours in DMEM containing 10% FBS. For the assay, the cells were plated at 250 cells per well in 384-well tissue culture plates (Corning, Corning, NY) in a total volume of 25 μL of assay media (DMEM and 10% HI FBS). The plated cells were treated with a 4-fold serial dilution of the Antibody Drug Conjugates of interest from either 1 μM or 0.5 μM to either 1 50 μM or 25 μM, respectively. Each concentration was tested in at least three replicates for the Mcl-1^−/− MEF huEGFR cell line and for the Mcl-1^−/− MEF vector cell line. The fraction of viable cells following 96 hours of Antibody Drug Conjugate treatment at 37° C. and 5% CO2 was determined using the CellTiter-Glo Luminescent Cell Viability Assay according to the manufacturer's recommendations (Promega Corp., Madison, WI). The plates were read in a Perkin Elmer Envision using a Luminescence protocol with 0.1 see integration time. The replicate values for each dilution point were averaged and the EC50 values for the Antibody Drug Conjugates were generated by fitting the data with GraphPad Prism 5 (GraphPad Software, Inc.) to a sigmoidal curve model using linear regression, Y=((Bottom−Top)/(1+((x/K)^n)))+Top, where Y is the measured response, x is the compound concentration, n is the Hill Slope and K is the EC50 and Bottom and Top are the lower and higher asymptotes respectively. Visual inspection of curves was used to verify curve fit results. Mcl-1^−/− MEFs were obtained from David C. S. Huang of the Walter and Eliza Hall Institute of Medical Research.
(In general: Cellular ATP, detected with luciferase, serves as a proxy for viable cell number.)
In turn, B1 gave an EC50 of 0.194 µM. This lies in the sub-micromolar range.

B2 displayed a concentration giving a half-maximal response (EC50) of 0.196 µM.

A word on the EC50: it is the concentration needed to bring the measured effect to its halfway point. A low value points to higher potency in that assay.
